Laboratory results reported in publication PMC9911399, “Two distinct binding modes provide the RNA-binding protein RbFox with extraordinary sequence specificity”.
Positions count from the first letter of the chain named. The list shows a part of the results.

T1: RBFOX1 RRM RbFoxmut (Fox-RRM*) (Homo sapiens, UniProt Q9NWB1 109-208, R118D;E147R;N151S;E152T)
T1 sequence: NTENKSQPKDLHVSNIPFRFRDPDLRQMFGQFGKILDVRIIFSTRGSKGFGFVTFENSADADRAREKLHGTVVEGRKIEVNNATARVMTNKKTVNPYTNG

B1: ACACAGU (DNA:RNA)
RNA: GGGAGACCGGAAUUCAGAUUGUCCACACAGUUUAAAUCCCGUCGUAGCCACCA
DNA 1: CAATCTGAATTCCGGTCTCCC
DNA 2: TGGTGGCTACGACGGGATT
B2: GUAACGA (DNA:RNA)
RNA: B1 RNA with A25G, C26U, C28A, A29C, U31A
DNA 1: CAATCTGAATTCCGGTCTCCC
DNA 2: TGGTGGCTACGACGGGATT
B3: CAGGCCG (DNA:RNA)
RNA: GGGAGACCGGAAUUCAGAUUGUCCCAGGCCGUUAAAUCCCGUCGUAGCCACCA
DNA 1: CAATCTGAATTCCGGTCTCCC
DNA 2: TGGTGGCTACGACGGGATT
B4: UUGCGCU (DNA:RNA)
RNA: B1 RNA with A25U, C26U, A27G, A29G, G30C
DNA 1: CAATCTGAATTCCGGTCTCCC
DNA 2: TGGTGGCTACGACGGGATT
B5: CGCAGGC (DNA:RNA)
RNA: B1 RNA with A25C, C26G, A27C, C28A, A29G, U31C
DNA 1: CAATCTGAATTCCGGTCTCCC
DNA 2: TGGTGGCTACGACGGGATT
B6: UUCUGUA (DNA:RNA)
RNA: GGGAGACCGGAAUUCAGAUUGUCCUUCUGUAUUAAAUCCCGUCGUAGCCACCA
DNA 1: CAATCTGAATTCCGGTCTCCC
DNA 2: TGGTGGCTACGACGGGATT
B7: AUAGAUC (DNA:RNA)
RNA: B1 RNA with C26U, C28G, G30U, U31C
DNA 1: CAATCTGAATTCCGGTCTCCC
DNA 2: TGGTGGCTACGACGGGATT
B8: GAGGUGA (DNA:RNA)
RNA: B3 RNA with C25G, C29U, C30G, G31A
DNA 1: CAATCTGAATTCCGGTCTCCC
DNA 2: TGGTGGCTACGACGGGATT
B9: CAGAGCG (DNA:RNA)
RNA: B3 RNA with G28A, C29G
DNA 1: CAATCTGAATTCCGGTCTCCC
DNA 2: TGGTGGCTACGACGGGATT
B10: ACGCGAC (DNA:RNA)
RNA: B1 RNA with A27G, A29G, G30A, U31C
DNA 1: CAATCTGAATTCCGGTCTCCC
DNA 2: TGGTGGCTACGACGGGATT
B11: UCAAGUC (DNA:RNA)
RNA: B6 RNA with U26C, C27A, U28A, A31C
DNA 1: CAATCTGAATTCCGGTCTCCC
DNA 2: TGGTGGCTACGACGGGATT
B12: UCUAUCG (DNA:RNA)
RNA: B3 RNA with C25U, A26C, G27U, G28A, C29U
DNA 1: CAATCTGAATTCCGGTCTCCC
DNA 2: TGGTGGCTACGACGGGATT
B13: AGACGUU (DNA:RNA)
RNA: B1 RNA with C26G, A29G, G30U
DNA 1: CAATCTGAATTCCGGTCTCCC
DNA 2: TGGTGGCTACGACGGGATT
B14: AUAUUGU (DNA:RNA)
RNA: B1 RNA with C26U, C28U, A29U
DNA 1: CAATCTGAATTCCGGTCTCCC
DNA 2: TGGTGGCTACGACGGGATT
B15: ACUAGUG (DNA:RNA)
RNA: B1 RNA with A27U, C28A, A29G, G30U, U31G
DNA 1: CAATCTGAATTCCGGTCTCCC
DNA 2: TGGTGGCTACGACGGGATT
B16: GUCAGUA (DNA:RNA)
RNA: B6 RNA with U25G, U28A
DNA 1: CAATCTGAATTCCGGTCTCCC
DNA 2: TGGTGGCTACGACGGGATT
B17: CGUAGCG (DNA:RNA)
RNA: B3 RNA with A26G, G27U, G28A, C29G
DNA 1: CAATCTGAATTCCGGTCTCCC
DNA 2: TGGTGGCTACGACGGGATT
B18: CUUUCCC (DNA:RNA)
RNA: B3 RNA with A26U, G27U, G28U, G31C
DNA 1: CAATCTGAATTCCGGTCTCCC
DNA 2: TGGTGGCTACGACGGGATT
B19: CGGGAAA (DNA:RNA)
RNA: B3 RNA with A26G, C29A, C30A, G31A
DNA 1: CAATCTGAATTCCGGTCTCCC
DNA 2: TGGTGGCTACGACGGGATT
B20: CUUUUCU (DNA:RNA)
RNA: B3 RNA with A26U, G27U, G28U, C29U, G31U
DNA 1: CAATCTGAATTCCGGTCTCCC
DNA 2: TGGTGGCTACGACGGGATT

molecular target: T1, RBFOX1 RRM RbFoxmut (Fox-RRM*); assay: EMSA; HiTS-Eq, 1 nM pool, 10 min; buffer printed only for the single-RNA assays: 10 mM Tris pH 7.5, 150 mM NaCl, 3.4 mM EDTA, 0.001% NP-40, 30 C; details: tags: His6 N-terminal (pET28a); label: 5' 32P
How it was run: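 Purified wild-type or mutant RbFox RRM at increasing concentrations was equilibrated with 1 nM of 5′-radiolabelled RNA carrying 7 randomized nucleotides for 10 min in 50 µL. Unbound RNA was separated by 8% native PAGE and sequenced. Relative association constants came from read-count changes of each RNA species compared with the control reaction, normalised to the cognate motif.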

| Binder | binding signal |
| --- | --- |
| B1 | 0.0829 KA relative to UGCAUGU |
| B2 | 0.075 KA relative to UGCAUGU |
| B3 | 0.0943 KA relative to UGCAUGU |
| B4 | 0.112 KA relative to UGCAUGU |
| B5 | 0.0734 KA relative to UGCAUGU |
| B6 | 0.166 KA relative to UGCAUGU |
| B7 | 0.0819 KA relative to UGCAUGU |
| B8 | 0.11 KA relative to UGCAUGU |
| B9 | 0.109 KA relative to UGCAUGU |
| B10 | 0.0755 KA relative to UGCAUGU |
| B11 | 0.0744 KA relative to UGCAUGU |
| B12 | 0.106 KA relative to UGCAUGU |
| B13 | 0.082 KA relative to UGCAUGU |
| B14 | 0.171 KA relative to UGCAUGU |
| B15 | 0.126 KA relative to UGCAUGU |
| B16 | 0.143 KA relative to UGCAUGU |
| B17 | 0.152 KA relative to UGCAUGU |
| B18 | 0.0424 KA relative to UGCAUGU |
| B19 | 0.102 KA relative to UGCAUGU |
| B20 | 0.0489 KA relative to UGCAUGU |
